Test results as given in PubChem BioAssay AID1259400 (National Center for Advancing Translational Sciences (NCATS), 2018).
“And” between values parts separate entries of the source, which are not always exact repeats. Identical values can stand only once. The whole screen tested about 350,000 compounds, of which about 2,100 (0.6%) were called active. Inconclusive means that the source gave no clear call. Such entries were picked first, then a sample of the others.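 How the source made its calls: active means activity change of -60% or lower, but not beyond a set lower limit; inconclusive means change between -60% and -40%, or beyond the set limit; inactive means change above -40%.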

Target: Relaxin receptor 1 (Homo sapiens) (UniProt Q9HBX9)
Sequence of UniProt Q9HBX9 (Q9HBX9 whole entry, looked up): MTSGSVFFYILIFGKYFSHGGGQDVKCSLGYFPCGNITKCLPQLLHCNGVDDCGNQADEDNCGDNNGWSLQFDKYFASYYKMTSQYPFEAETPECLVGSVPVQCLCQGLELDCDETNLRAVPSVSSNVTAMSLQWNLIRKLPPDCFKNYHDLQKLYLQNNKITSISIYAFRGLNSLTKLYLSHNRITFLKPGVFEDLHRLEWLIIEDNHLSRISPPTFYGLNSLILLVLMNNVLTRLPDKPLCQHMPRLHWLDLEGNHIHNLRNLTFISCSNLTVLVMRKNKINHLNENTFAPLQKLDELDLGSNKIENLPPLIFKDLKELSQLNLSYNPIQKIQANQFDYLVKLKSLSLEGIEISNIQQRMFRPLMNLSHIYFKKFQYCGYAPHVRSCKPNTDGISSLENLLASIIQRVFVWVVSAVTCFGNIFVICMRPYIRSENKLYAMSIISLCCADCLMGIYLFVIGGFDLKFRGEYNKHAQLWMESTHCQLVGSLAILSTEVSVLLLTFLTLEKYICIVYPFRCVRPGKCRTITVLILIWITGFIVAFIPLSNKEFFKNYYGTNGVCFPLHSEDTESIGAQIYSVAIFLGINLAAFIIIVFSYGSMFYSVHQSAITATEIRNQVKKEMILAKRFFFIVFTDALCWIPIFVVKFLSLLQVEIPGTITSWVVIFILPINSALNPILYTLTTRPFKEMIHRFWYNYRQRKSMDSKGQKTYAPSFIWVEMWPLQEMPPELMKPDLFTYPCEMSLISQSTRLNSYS
Experiment: qHTS Assay for Antagonists of the Relaxin Receptor RXFP1
Conditions: HEK293-RXFP1, relaxin-stimulated cAMP HTRF, 30 min; at 57.5 µM; active compounds read low
From the text: The relaxin hormone is involved in the variety of biological functions in normal tissues and diseases. The role of relaxin is well-established in female reproduction and parturition, mammary gland and endometrial development, maintenance of myometrial quiescence during pregnancy. Relaxin signaling through its G protein-coupled receptor (GPCR) RXFP1 results in ECM remodeling through regulation of collagen deposition, cell invasiveness, proliferation and overall tissue homeostasis. […] Recombinant human relaxin (rhRlx) is currently being tested in clinical trials as a protective agent in congestive heart failure, in treating severe preeclampsia, and as an anti-fibrotic agent in various organs. […] Upon relaxin binding RXFP1 activation leads to the activation of adenylate cyclase (AC) via G?s. cAMP will activate PKA, which phosphorylates many signaling proteins. Thus, detection of cAMP increase is an easy and reliable indication of relaxin receptor activation. To screen for antagonists of the relaxin receptor, a HEK293T cell line stably transfected with RXFP1 was used. RXFP1 activation by relaxin in presence of various concentrations of tested compounds was assayed by changes in cAMP levels as detected with a time-resolved fluorescence energy transfer (TR-FRET) cAMP detection kit.
For the primary screening, we used HTRF(R) (Homogenous Time-Resolved Fluorescence) cAMP HiRange assay (Cisbio Bioassays, 62AM6PEJ). Presence of cAMP in the cell lysate disrupts binding between the Cryptate-labeled anti-cAMP and d2-labeled cAMP pair, leading to a decrease in TR-FRET signal. The libraries were screened at two doses (57microM and 11microM), followed by a confirmation of the hits at 7-point serial dilution in the range of final concentrations [57microM - 78nM]. Data were normalized to the controls for basal activity (buffer only) and 100% activity (5 nM porcine relaxin). The EC50 values were determined from concentration-response data modeled with the standard Hill equation. NCGC Assay Protocol Summary: HiHEK (Hawaiian HEK293 LGR7 stably transfected with human RXFP1) were grown in the following media: DMEM+10%FBS+Pen/Strep + Geneticin (1mg/ml). For the assay, the cells were seeded in DMEM+Pen/Strep (with no serum & selective antibiotics) at 2,100 cells/ 3microl/well with MultiDrop Combi dispenser (Thermo Scientific, Logan, UT) onto white tissue culture treated solid bottom1536-well plates (Greiner #789173-F) and allowed to attach/recover overnight at 37 degrees C, 5% CO2. Next, 23nl/well of compound solutions in DMSO were transferred into wells with a pintool (Kalypsis, San Diego, CA). […] EC80 (relaxin at 50pM final concentration) was dispensed to the rest of the plate except columns 1&2 which were used as a negative control (EC0, buffer only), 1microl/well also. The cells were stimulated by relaxin in the presence of compounds for 30 minutes at 37 degrees C, 5% CO2. The detection reagents were prepared individually by dilution in Lysis buffer (supplied with the assay kit) just prior to dispensing. 1microl/well of cAMP-d2 and 1microl/well anti-cAMP-Eu3+-Cryptate antibodies were added simultaneously with BioRAPTR FRDtrade mark Workstation (Beckman Coulter). The plates were incubated at ambient temperature for 30 minutes and, then, FRET signal was read on Envision plate reader (PerkinElmer, Waltham, MA), at wavelengths 340nm (excitation), 615nm & 665nm (emission of donor and acceptor channels respectively).
On the % scale 0 is the no-effect control and ±100 the full control effect.

Row | SMILES | activity change, negative = inhibition
1 | O=C(NNc1cc(Br)c(O)c(Br)c1)c1ccccc1 | active: -96.4%
2 | O=C1NC(Nc2nc3ccccc3s2)(C(F)(F)F)C(=O)N1C1CCCCC1 (stereo not given) | inconclusive: -45.7%
3 | CC(C)(C)c1ccc(-c2conc2N)cc1 | inconclusive: -40.4%
4 | O=C(CCN1C(=O)C2CC=CCC2C1=O)Nc1nc(-c2ccc(F)c(F)c2)cs1 (stereo not given) | inconclusive: -51.2%
5 | CCNC(=S)NCc1ccc(Cl)cc1 | inactive: 5.05%
6 | CCC1CCCCN1CCNC(=O)C1CCN(S(=O)(=O)c2cccc3nsnc23)CC1 (stereo not given) | inconclusive: -49.3%
7 | Cc1nn(C)cc1CN1CCCC(C(=O)c2ccc(-c3ccccc3)cc2)C1 (stereo not given) | inconclusive: -44.2%
8 | CCOC(=O)c1ccc(NC(=O)C2C3CCCCC32)cc1 (stereo not given) | inconclusive: -58.7%
9 | O=C(CN1C(=O)c2cccc([N+](=O)[O-])c2C1=O)OCC(=O)N1CCCCC1 | inconclusive: -51.8%
10 | CCOC(=O)/C(C#N)=C\c1ccc(N2CCN(C/C=C/c3ccccc3)CC2)cc1 | inactive: -14%
11 | CCOC(=O)C1(Cc2ccccc2C(F)(F)F)CCN(CC(O)CO)CC1 (stereo not given) | inconclusive: -44%
12 | Cc1cccc(C(=O)NC(=S)NNC(=O)c2ccc(Cl)cc2)c1 | active: -96.5%
13 | O=c1c2cc(N3CCOCC3)ccc2[nH]c(=S)n1Cc1ccccc1Cl | inconclusive: -56.5%
14 | COCCCNC(=O)c1ccc2c(=O)n(C3CCCC3)c(=S)[nH]c2c1 | inconclusive: -47.3%
15 | Cc1cccc(NC(=O)CSc2nnc(-c3cccs3)o2)c1 | inactive: -5.9%
16 | O=C(NCCN1CCN(c2ccc([N+](=O)[O-])cc2)CC1)NCc1ccccc1 | inactive: 12.9%
17 | COc1ccc(CNn2c(-c3ccccc3F)nc3ccccc3c2=O)cc1OC | inconclusive: -43.7%
18 | CC1=C(C(=O)Nc2cc(C(=O)N3CCN(c4cccc(C)c4C)CC3)ccc2C)SCCO1 | inconclusive: -53.7%
19 | CC(=O)c1ccc(NC(=O)C2CCN(S(=O)(=O)c3ccc4c(c3)CCCN4C(=O)C3CCC3)CC2)cc1 | inactive: -10.7%
20 | O=C(Nc1ccc2ccccc2c1)Nc1ccc2snnc2c1 | inconclusive: -49.3%
21 | COc1ccc(/C(N)=N/OC(=O)CCC2CCCC2)cc1OC | inconclusive: -42.4%
22 | COc1ccc(N(CC(=O)N2CCN(c3ccc(Cl)cc3)CC2)S(=O)(=O)c2c(C)noc2C)cc1 | inconclusive: -41.8%

Row | SMILES | activity change, negative = inhibition
23 | OC1(c2ccc(Cl)c(C(F)(F)F)c2)CCN(CCCC(c2ccc(F)cc2)c2ccc(F)cc2)CC1 | inconclusive: -48.5%
24 | Cc1ccc(C)c(N2CCN(C(=O)c3cccc(-n4c(C)nc5cccnc54)c3)CC2)c1 | active: -69.7%
25 | COc1ccc(N2CCN(CCNS(=O)(=O)c3ccc(C)cc3)CC2)cc1 | inconclusive: -43.4%
26 | CCn1c(=S)[nH]c2cc(S(=O)(=O)N3CCCCC3)ccc21 | inconclusive: -55.4%
27 | Cc1ccc2[nH]cc(C(c3ccccc3)c3cccs3)c2c1 (stereo not given) | active: -72%
28 | COc1ccc(C(=O)Sc2ccc(C)cc2)cc1OC | inactive: -4.05%
29 | COc1ccc(CNC(=O)c2cc3ccccn3n2)c(OC)c1 | inactive: -0.848%
30 | CCCCOc1cccc(C2c3c(-c4cc(C)ccc4O)n[nH]c3C(=O)N2CCOC)c1 (stereo not given) | inconclusive: -55.8%
31 | COC(=O)CN1C(=O)CSc2ccc(S(=O)(=O)Nc3ccc(C)c(Cl)c3)cc21 | inactive: 0.271%
32 | CCOC(=O)C1=C(N)Oc2cc(O)ccc2C1c1cccc([N+](=O)[O-])c1 (stereo not given) | inconclusive: -46.5%
33 | O=C(Nc1ccccc1)C1CCCN(C(=O)c2ccc(Cl)cc2)C1 (stereo not given) | inconclusive: -41.7%
34 | CCOC(=O)c1c(C)[nH]c(-c2csc(C)n2)c1C | active: -66.8%
35 | CCCCNS(=O)(=O)c1ccc2nc(SCC(=O)c3ccc(C#N)cc3)[nH]c2c1 | inconclusive: -45.6%
36 | CN(C)c1ccc(CNCCC(Cc2ccccc2)c2ccco2)cc1 (stereo not given) | inconclusive: -53.2%
37 | COC(=O)CN1C(C(=O)c2ccccc2)=C(OC(=O)c2ccccc2)c2ccccc2S1(=O)=O | inactive: -15.5%
38 | Cc1ccc(-n2ncc(C(=O)NCCN3CCC(Cc4ccccc4)CC3)c2C2CCN(C(=O)OC(C)(C)C)CC2)cc1 | active: -68.7%
39 | CCCn1c(SCC(=O)N2CC(=O)Nc3ccccc32)nc2ccccc21 | inconclusive: -46.3%
40 | CCn1c(=O)c([N+](=O)[O-])c(Cl)c2ccccc21 | inconclusive: -40.2%
41 | CCN(C(=O)COC(=O)c1ccccc1O)c1nc2ccccc2s1 | inconclusive: -46.4%
42 | Cc1ccc(NN2C(=O)C=C(c3ccc(Cl)cc3)C2=O)cc1 | active: -95.6%
43 | Cc1ccc(N(Cc2cccs2)C(=O)c2ccc(OC(C)C)cc2)cc1 | inconclusive: -55.8%
44 | COc1cccc(C(=O)Nc2cccc(C(=O)NC3=NN(c4c(Cl)cc(Cl)cc4Cl)C(=O)C3)c2)c1 | inconclusive: -42.6%

Row | SMILES | activity change, negative = inhibition
45 | O=C(/C=C/c1cccc2ccccc12)c1ccncc1 | active: -71.3%
46 | CC(Nc1oc(-c2ccc(COc3ccccc3)o2)nc1C#N)c1ccccc1 (stereo not given) | inactive: -22.8%
47 | COc1ccccc1NC(=O)CC(=O)CSc1nnc(-c2ccc(C)cc2)n1-c1ccccc1 | inconclusive: -42.2%
48 | Cc1cc(C)c(-c2c(N)cc(Br)cc2Br)c(N)c1 | inconclusive: -41.2%
49 | CCOc1ccc(N(CC(=O)NCc2ccc(F)cc2)C(=O)CCC(=O)Nc2nccs2)cc1 | inactive: 1.55%
50 | CCN(CC)c1ccc(-c2n[nH]c(=S)n2-c2ccccc2C)cc1 | inconclusive: -40.3%
51 | O=C(NN1C(=O)c2cc(Br)ccc2NC1c1cc(Br)cc(Br)c1O)c1ccncc1 (stereo not given) | inconclusive: -43.9%
52 | Cc1ccc(CNC(=O)C2CCN(C(=O)N3CC(C)Oc4ccc(Cl)cc43)CC2)cc1 (stereo not given) | inconclusive: -42.6%
53 | CC1(C)CC(=O)C2=C(C1)N1C(=C(C#N)C2c2ccc(Cl)cc2)N=C(N)c2ccccc21 (stereo not given) | inconclusive: -58.1%
54 | Cc1ccc(CNC(=O)c2ccc3c(c2)c(C)c(C)n3Cc2ccc(Cl)cc2)o1 | inactive: -14.6%
55 | C[C@@H]1CCCCO[C@@H](CN(C)C(=O)Nc2ccccc2)[C@@H](C)CN([C@H](C)CO)C(=O)c2cc(N(C)C)ccc2O1 | inactive: 4.51%
56 | CC(CNC(=O)COc1ccccc1)OC(=O)Nc1ccc(Cl)c(Cl)c1 (stereo not given) | inconclusive: -41.9%
57 | COc1cc(-c2cc(OC)c3c(C)oc(C)c3c(=O)c2)ccc1OC(=O)c1cccc(C)c1 | inconclusive: -43.2%
58 | c1cc(CSc2nnc(-c3ccc4c(c3)OCO4)o2)ccn1 | inactive: -6.54%
59 | Cc1c(Br)c(O)c(Br)c2sc(=O)oc12 | inconclusive: -42.3%
60 | O=C(c1cc(-c2ccc(Cl)cc2)n[nH]1)N1CCN(S(=O)(=O)c2ccc(Br)s2)CC1 | inconclusive: -45.2%
61 | COc1ccc(NS(=O)(=O)c2cc(NC(=O)c3cnc(C)cn3)ccc2N2CCCCC2)cc1 | inactive: 2.04%
62 | CC(=O)Oc1c(I)cc(I)cc1C(=O)Nc1ccc(Cl)cc1 | active: -96.5%
63 | CCOc1cc(C)c(C(C)C)cc1S(=O)(=O)n1ccc(C)n1 | inconclusive: -44.9%
64 | Fc1cccc(CN2CCc3nc(Nc4ccc5c(c4)OCCO5)ncc3C2)c1F | inconclusive: -50.5%
65 | COc1cc2c(cc1OC)CN(CC(=O)Nc1ccc(C#N)cc1)CC2 | inactive: 2.5%
66 | CCOC(=O)Cc1n[nH]c(=O)c2ccccc12 | inconclusive: -46.6%

Row | SMILES | activity change, negative = inhibition
67 | S=C(c1cn(CCOc2cccc3ccccc23)c2ccccc12)N1CCCC1 | inactive: -14.6%
68 | CN(C)Cc1nc2ccccc2c(=O)n1Cc1nc(C(C)(C)C)cs1 | inconclusive: -56%
69 | Cc1ccc(Cl)c(Nc2ccccc2C(=O)O)c1Cl | inconclusive: -50.8%
70 | CCCCn1c(N)c(N(CC(C)C)C(=O)CCCc2cccs2)c(=O)[nH]c1=O | inactive: 4.63%
71 | COc1cc(CNc2ccccc2SC)cc(OC)c1OC | inconclusive: -50.3%
72 | O=C(/C=C/c1ccc([N+](=O)[O-])cc1)NC1CC2CCC1C2 (stereo not given) | inconclusive: -46.9%
73 | Oc1ccccc1CN1CCN(C(c2ccccc2)c2ccccc2)CC1 | inconclusive: -50.6%
74 | CCc1ccc(NC(=O)C2CCCN(S(=O)(=O)c3ccc4[nH]c(=O)ccc4c3)C2)cc1 (stereo not given) | inactive: 6.21% and inactive: 3.4%
75 | COc1ccc(S(=O)(=O)Nc2cccc(-c3ccc(N4CCCCCC4)nn3)c2)cc1OC | inactive: -14.9% and inactive: -7.54%
76 | CC(C)Cc1ccc(C(C)C(N)=Nc2ccc(O)cc2)cc1 (stereo not given) | inconclusive: -42.6%
77 | CC(C)c1ccc(/C=C2\SC(=O)N(CC(=O)NC3C=CS(=O)(=O)C3)C2=O)cc1 (stereo not given) | inconclusive: -44.7%
78 | CC(=O)c1sc(NC(=O)c2ccccc2)nc1-c1ccccc1 | inactive: -0.756%
79 | Oc1c(Br)cc(Br)cc1C=NCc1ccc(F)cc1 | inconclusive: -45.9%
80 | COc1ccc(C(CNC(=O)c2oc3ccc(F)cc3c2C)N2CCCCC2)cc1 (stereo not given) | inconclusive: -59.1%
81 | O=C(NCc1ccccc1)C1CCN(c2ncnc3c2nc2n3CCCCC2)CC1 | inactive: -1.59%
82 | CC(C)n1cc(/C=N/NC(=O)COc2cccc3cccnc23)c2ccccc21 | inconclusive: -48.8%
83 | O=C(N/N=C/c1cc(Cl)c(O)c(Cl)c1)c1cc2c(ccc3ccccc32)o1 | active: -81.3%
84 | CCN(CC)S(=O)(=O)c1cc(NC(=O)c2ccc(Br)s2)ccc1C | inconclusive: -42.7%
85 | CCOC(=O)c1[nH]c2c(c1Cc1ccccc1)C(=O)CC(c1ccc(C(C)(C)C)cc1)C2 (stereo not given) | active: -63.5%
